Source: publication PMC11995724, “Antibiotic target discovery by integrated phenotypic and activity-based profiling of electrophilic fragments” (Cell chemical biology, 2025)
Screen size: about 3,200 compounds; about 110 (3.4%) showed an effect of 50% or more. This is one part of the list.

system: T1, V. cholerae SAD30; parameters: species or system S. aureus MSSA476 (TSB) or V. cholerae SAD30 (LB); 384-well bacterial growth screen at 25 uM, OD600 relative to DMSO control; settings: relative growth, OD600, LB; 25 µM; inhibitor
T1 construct: SAD30

Compound	% of control remaining
O=C(CCl)c1c(-c2ccccc2)[nH]c2ccccc12 [10-E05, 2-chloro-1-(2-phenyl-1H-indol-3-yl)ethan-1-one]	90.863%
COc1cc(CC2CN(C(=O)C(C)Cl)C2)cc(OC)c1 (centres unmarked) [7-H07, 2-chloro-1-{3-[(3,5-dimethoxyphenyl)methyl]azetidin-1-yl}propan-1-one]	77.1849%
C=CC(=O)NCc1noc2c1CC(C)(C)CC2 [2-L07, N-[(5,5-dimethyl-4,5,6,7-tetrahydro-1,2-benzoxazol-3-yl)methyl]prop-2-enamide]	86.9536%
O=C(CCl)N1CCCC1c1nc(Cc2ccc(F)cc2)no1 (centres unmarked) [5-M10, 2-chloro-1-(2-{3-[(4-fluorophenyl)methyl]-1,2,4-oxadiazol-5-yl}pyrrolidin-1-yl)ethan-1-one]	94.6517%
Cc1ccc(CNC(=O)C(C)Cl)cc1 (centres unmarked) [5-O03, 2-chloro-N-[(4-methylphenyl)methyl]propanamide]	109.11%
O=C(CCl)c1c[nH]c(C(=O)N2CCCC2)c1 [10-A16, 2-chloro-1-[5-(pyrrolidine-1-carbonyl)-1H-pyrrol-3-yl]ethan-1-one]	108.475%
C=CC(=O)NCC1CCCC(C2CC2)O1 (centres unmarked) [1-M17, N-[(6-cyclopropyloxan-2-yl)methyl]prop-2-enamide]	85.0523%
Cc1cc(C(=O)CCl)c(C)n1-c1cccc([N+](=O)[O-])c1 [10-B16, 2-chloro-1-[2,5-dimethyl-1-(3-nitrophenyl)-1H-pyrrol-3-yl]ethan-1-one]	67.329%
CN(CC(=O)NCc1ccco1)C(=O)CCl [4-A18, 2-chloro-N-({[(furan-2-yl)methyl]carbamoyl}methyl)-N-methylacetamide]	107.828%
C=CC(=O)N1CCn2cccc2C12COC2 [1-K09, 1-{3',4'-dihydro-2'H-spiro[oxetane-3,1'-pyrrolo[1,2-a]pyrazin]-2'-yl}prop-2-en-1-one]	88.9387%
CC(Cl)C(=O)NCc1ncn(Cc2cccc(F)c2)n1 (centres unmarked) [7-K03, 2-chloro-N-({1-[(3-fluorophenyl)methyl]-1H-1,2,4-triazol-3-yl}methyl)propanamide]	90.5336%
CC(CC#N)Sc1ccccc1NC(=O)CCl (centres unmarked) [5-F14, 2-chloro-N-{2-[(1-cyanopropan-2-yl)sulfanyl]phenyl}acetamide]	94.6517%
CN(CCC1CCCCC1)C(=O)CCl [5-A06, 2-chloro-N-(2-cyclohexylethyl)-N-methylacetamide]	99.8634%
COc1ccc(CN2CCN(C(=O)CCl)CC2)cc1F.Cl [4-P18, 2-chloro-1-{4-[(3-fluoro-4-methoxyphenyl)methyl]piperazin-1-yl}ethan-1-one hydrochloride]	110.934%
CCCCNC(=O)C(C#N)=Cc1cc(C)ccc1C [9-C11, N-butyl-2-cyano-3-(2,5-dimethylphenyl)prop-2-enamide]	79.0619%
C=CC(=O)NCC(C)(C)C1CCCCC1 [1-E21, N-(2-cyclohexyl-2-methylpropyl)prop-2-enamide]	79.6712%
C=CC(=O)N1CCC(C(=O)Nc2ccn(CC(=O)N(C)C)n2)CC1 [2-H12, N-{1-[(dimethylcarbamoyl)methyl]-1H-pyrazol-3-yl}-1-(prop-2-enoyl)piperidine-4-carboxamide]	94.8278%
Cc1cccc(-n2cc(C(=O)CCl)nn2)c1 [10-L07]	5.299%
N#CC(=Cc1ccccc1OC(F)F)C(=O)NC1CCCCC1 [8-H18, 2-cyano-N-cyclohexyl-3-[2-(difluoromethoxy)phenyl]prop-2-enamide]	69.1366%
COc1cc(C=C(C#N)C(=O)Nc2ccccn2)ccc1O [9-P08, 2-cyano-3-(4-hydroxy-3-methoxyphenyl)-N-(pyridin-2-yl)prop-2-enamide]	90.4827%
CCc1nsc(N2CCCN(C(=O)C(C)Cl)CC2)n1 (centres unmarked) [7-B15, 2-chloro-1-[4-(3-ethyl-1,2,4-thiadiazol-5-yl)-1,4-diazepan-1-yl]propan-1-one]	78.903%
Cc1csc(CN(CC2CCCO2)C(=O)C(C)Cl)n1 (centres unmarked) [7-E09, 2-chloro-N-[(4-methyl-1,3-thiazol-2-yl)methyl]-N-[(oxolan-2-yl)methyl]propanamide]	81.8107%

Compound	% of control remaining
C=CC(=O)Nc1cc(NC(=O)[C@@H]2CSCN2C(=O)CC)ccc1F [2-P18, (4R)-N-[4-fluoro-3-(prop-2-enamido)phenyl]-3-propanoyl-1,3-thiazolidine-4-carboxamide]	99.4596%
CC(Cl)C(=O)Nc1nc(-c2ccccc2)cs1 (centres unmarked) [6-L10, 2-chloro-N-(4-phenyl-1,3-thiazol-2-yl)propanamide]	85.6953%
CCOC(=O)c1c(NC(=O)CCl)sc2c1CCCC2 [6-I11, ethyl 2-(2-chloroacetamido)-4,5,6,7-tetrahydro-1-benzothiophene-3-carboxylate]	79.3251%
C=CC(=O)Nc1ccc(-n2nc(C)[nH]c2=O)cc1 [2-E16, N-[4-(3-methyl-5-oxo-4,5-dihydro-1H-1,2,4-triazol-1-yl)phenyl]prop-2-enamide]	91.8942%
CC(Cl)C(=O)N1Cc2ccoc2CC(C)(C)C1 (centres unmarked) [5-P21, 2-chloro-1-{7,7-dimethyl-4H,5H,6H,7H,8H-furo[3,2-c]azepin-5-yl}propan-1-one]	108.438%
CC(C)c1ccc(-c2cc(NC(=O)CCl)n(-c3ccccc3)n2)cc1 [4-C16, 2-chloro-N-{1-phenyl-3-[4-(propan-2-yl)phenyl]-1H-pyrazol-5-yl}acetamide]	99.2021%
C=CC(=O)NCc1cccc(NS(C)(=O)=O)c1 [3-K15, N-[(3-methanesulfonamidophenyl)methyl]prop-2-enamide]	91.0311%
N#CC(=Cc1csnn1)C(=O)Nc1ccc(Oc2ccccc2)cc1 [8-M12, 2-cyano-N-(4-phenoxyphenyl)-3-(1,2,3-thiadiazol-4-yl)prop-2-enamide]	62.2026%
C=CC(=O)N1CCC(C(=O)N[C@H]2CC[C@@H](CC#N)C2)CC1 (racemic) [2-G21, rac-N-[(1R,3S)-3-(cyanomethyl)cyclopentyl]-1-(prop-2-enoyl)piperidine-4-carboxamide]	101.776%
CC1=C(C#N)C(=O)N(C2CCS(=O)(=O)C2)C(=O)C1=Cc1ccco1 (centres unmarked) [9-O13, 1-(1,1-dioxo-1lambda6-thiolan-3-yl)-5-[(furan-2-yl)methylidene]-4-methyl-2,6-dioxo-1,2,5,6-tetrahydropyridine-3-carbonitrile]	90.6186%
CCn1c2ccccc2c2cc(NC(=O)C(C)Cl)ccc21 (centres unmarked) [4-E12, 2-chloro-N-(9-ethyl-9H-carbazol-3-yl)propanamide]	90.4033%
C=CC(=O)NC(Cc1ccccc1)c1ccccn1 (centres unmarked) [2-K14, N-[2-phenyl-1-(pyridin-2-yl)ethyl]prop-2-enamide]	85.1008%
C=CC(=O)N1CCC([C@@H](C)O)CC1 [3-E12, 1-{4-[(1R)-1-hydroxyethyl]piperidin-1-yl}prop-2-en-1-one]	104.617%
Cc1ccc(C=C(C#N)C(=O)Nc2ccccc2Cl)s1 [9-C22, N-(2-chlorophenyl)-2-cyano-3-(5-methylthiophen-2-yl)prop-2-enamide]	95.7852%
Cl.O=C(CCl)NC1CCN(Cc2ccccc2)C1 (centres unmarked) [6-G18, N-(1-benzylpyrrolidin-3-yl)-2-chloroacetamide hydrochloride]	91.1556%
C=CC(=O)N1CCC(C(=O)N2CCCC(CC(N)=O)CC2)CC1 (centres unmarked) [2-F12, 2-{1-[1-(prop-2-enoyl)piperidine-4-carbonyl]azepan-4-yl}acetamide]	87.88%
CCN(Cc1cccc(C)c1)C(=O)CCl [5-J16, 2-chloro-N-ethyl-N-[(3-methylphenyl)methyl]acetamide]	90.1124%
C#CCN1C(=O)C=CC1=O [10-F09, 1-(prop-2-yn-1-yl)-2,5-dihydro-1H-pyrrole-2,5-dione]	15.1179%
CCN1C(=O)C(=Cc2ccc(-c3ccc(F)cc3)o2)C(C)=C(C#N)C1=O [9-P09, 1-ethyl-5-{[5-(4-fluorophenyl)furan-2-yl]methylidene}-4-methyl-2,6-dioxo-1,2,5,6-tetrahydropyridine-3-carbonitrile]	92.794%
N#CC(=Cc1cc(F)ccc1F)C(=O)Nc1ccc(F)cc1F [8-C10, 2-cyano-N-(2,4-difluorophenyl)-3-(2,5-difluorophenyl)prop-2-enamide]	78.2461%
C=CC(=O)NC1CC2(CCC(C(=O)O)CC2)C1 (centres unmarked) [2-I16, 2-(prop-2-enamido)spiro[3.5]nonane-7-carboxylic acid]	94.8278%
COc1cc(C=C(C#N)C(=O)NC2CCCCC2C)cc(OC)c1O (centres unmarked) [9-H21, 2-cyano-3-(4-hydroxy-3,5-dimethoxyphenyl)-N-(2-methylcyclohexyl)prop-2-enamide]	94.9694%
